Reference: the supplement of paper PMC11417369
± gives the standard deviation of the averaged measurements. The list shows a part of the results.

Each sequence was assayed on PfAP2-EXP AP2 domain (GST-tagged) (assay: gcPBM binding intensity (ln(normalized median fluorescence intensity)); higher = stronger DNA binding).
Method in brief: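 The binding buffer was 1× PBS containing 1% milk, 0.2 mg/ml BSA, 0.5% salmon testes DNA and 0.03% Triton X-100. In it, GST-tagged P. falciparum DNA-binding domains expressed in E. coli were applied for 1 h to an Agilent 4 × 180k array of primer-extended double-stranded 36-bp intergenic genomic probes plus negative controls. Binding intensity, read with Alexa488 anti-GST antibody and a 488 nm scan, is the highest Masliner-normalised natural-log median intensity across replicate spots of either probe orientation.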

Row | Sequence | gcPBM binding intensity (ln)
1 | TATCTACTTAAATAAAATAAAAATAATAAATAAAAA [TGCATGCA_negctrl_site312] | 8.37 ± 0.3
2 | CGTATGTATATATATATACACACTTCTGTGATACGA [CACACA_site1949] | 8.53 ± 0.32
3 | ACATTATGTCATAAATGTACACATACATATACATAC [XGTACX_site8998] | 8.63 ± 0.32
4 | TTTTATTTATTCCTACTTTTTTATTTATTTATTTAA [XGTACX_negctrl_site415] | 8.59 ± 0.41
5 | ATGTATAATATTTTCACACACAAGAAAAAAGAAAAG [CACACA_site3591] | 8.84 ± 0.4
6 | AAATGAATTTAACAATGTACACATATATTATAAATA [XGTACX_site1449] | 8.28 ± 0.31
7 | AAAACGATTTTTTGCACACACATAATAAGCAGAACA [CACACA_site3871] | 8.97 ± 0.33
8 | TACATAATAATAAGGCGTACATAAAAATTAAAAATT [XGTACX_site8769] | 8.79 ± 0.42
9 | ATATACATTCTATATACATGCATACTTCATTTTGTG [TGCATGCA_site966] | 9.13 ± 0.72
10 | TAAGTCAAAACTTTTTTTTCTAAATTTCCATAATTA [GTGCAC_negctrl_site29] | 8.03 ± 0.46
11 | ATATATATATGTATATGTACTCATTCTTCTGTGTTT [XGTACX_site5014] | 9.71 ± 0.42
12 | AAACAATTTAGACATACACACAAAAATAATATTATA [CACACA_site384] | 8.77 ± 0.28
13 | ATTAAAAAAAAGCTCATCGAAATGTCTTATATAAAT [CACACA_negctrl_site912] | 8.72 ± 0.47
14 | ATATATATATATATATGTACATATTGTATTATTCAC [XGTACX_site6511] | 10.2 ± 0.32
15 | CACGAAAATTTGTAGAGTACATATATAATTAATATA [XGTACX_site3808] | 8.54 ± 0.43
16 | CAATTAAACAATTAAACATGCAAAATGATATAATAA [TGCATGCA_site240] | 8.65 ± 0.38
17 | AAAAAAAAATAGAAATGTACAAATTGTAATAATTCC [XGTACX_site6182] | 8.57 ± 0.35
18 | CATATGATATTATTTTGTACTTATTACAAATATGAA [XGTACX_site7929] | 8.4 ± 0.42
19 | TATAATAATATTTATTGTACGATTAGATTAATTCAT [XGTACX_site612] | 8.3 ± 0.61
20 | GAGCATTACACATATACACACATATATATAAACATA [CACACA_site5515] | 8.66 ± 0.36
21 | ATATATATATATATTTGTACATAATATATATATGCA [XGTACX_site1795] | 9.99 ± 0.2
22 | ATGTTCTATAAATATGAACACACGACATATTATTTA [CACACA_site1799] | 8.32 ± 0.42

Row | Sequence | gcPBM binding intensity (ln)
23 | ATATATATATATATATGTACATATTATTCTCATTGT [XGTACX_site6259] | 9.88 ± 0.28
24 | TGTAGTATCAATTTTTGTACATAACACATATGTATA [XGTACX_site613] | 8.43 ± 0.26
25 | TATATTTAATTACATGAACACACATTATATATTTTT [CACACA_site8969] | 8.46 ± 0.2
26 | TTTATTTTTCCATATGCACACACACCGTATATATAA [CACACA_site8293] | 9.15 ± 0.28
27 | AAAACAAACACATTTACACACATAAATAAATCAATT [CACACA_site4122] | 8.53 ± 0.45
28 | TATTCATTCTATAAAACACACAAATATTTTTGTATC [CACACA_site666] | 8.63 ± 0.4
29 | ATACATACATACATACGTACATATGTATATATATAT [XGTACX_site8498] | 9.7 ± 0.19
30 | AAAATATAAATATATTTGAACATGGATCAAATGTAA [GTGCAC_negctrl_site626] | 8.37 ± 0.35
31 | AAATTAAAATATAATACACACATAAAAAAAAAATCA [CACACA_site5918] | 8.54 ± 0.43
32 | GTATATGAATGTTCATGTACATAATAAAATATATAA [XGTACX_site250] | 8.77 ± 0.5
33 | ATATATATATATAAAGTGCAAAAATGAAAGTAAGAC [GTGCAC_site9850] | 9.99 ± 0.14
34 | ATAAAATATAAAAACGCACACAATTATAAGGGTGTA [CACACA_site177] | 8.78 ± 0.3
35 | AAGAAAAGAAACAAAAAAAAAAAGAAATAAAAGGAA [TGCATGCA_negctrl_site171] | 8.7 ± 0.71
36 | TATATATATATATGTAGTACCTATAATATTAAATAC [XGTACX_site6118] | 9.95 ± 0.33
37 | TTATTATCATCAAATCAAAAAATTCTTTTACCTGTT [CACACA_negctrl_site1348] | 8.21 ± 0.45
38 | AATTTTTTTTTTTTTTTTTTTTATATATGTGTGTGT [XGTACX_negctrl_site129] | 7.99 ± 0.67
39 | TATGAATGGTTAAGTACACACATATTAATATAGGTA [CACACA_site7606] | 8.67 ± 0.33
40 | ATCAATAAATAAAATGTGCACATAATATATTAATAC | 8.93 ± 0.38
41 | TTGAAGAAAAAAAAATGTACATAAAAAATATATATG [XGTACX_site428] | 8.91 ± 0.37
42 | CTTATAAATAAAAGAAGTACATGTTAGTTCAAGTTA [XGTACX_site4183] | 8.66 ± 0.38
43 | ATTATATTTATTAATATGTATATTTAATTATATTTA [XGTACX_negctrl_site376] | 7.98 ± 0.28
44 | TTTCATCTCGTCATTTCTTATATAACTATTTTATAC [CACACA_negctrl_site813] | 8.85 ± 0.44
